# “And” between values parts separate entries of the source, which are not always exact repeats. Identical values can stand only once. Screen size: about 48,000 compounds; about 1,200 (2.5%) were called active. About 2% were inconclusive and are not listed.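 The calls were made as follows: active = activation of at least 60% and not above a set upper limit (about 1 call in 100 departs from these limits); inconclusive = activation of 40% to 60%, or above that upper limit; inactive = activation under 40%.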 The list shows a part of the results.
# Biological target: Probable G-protein coupled receptor 32 (Homo sapiens) (UniProt O75388)
# UniProt O75388, sequence (O75388 whole entry, looked up): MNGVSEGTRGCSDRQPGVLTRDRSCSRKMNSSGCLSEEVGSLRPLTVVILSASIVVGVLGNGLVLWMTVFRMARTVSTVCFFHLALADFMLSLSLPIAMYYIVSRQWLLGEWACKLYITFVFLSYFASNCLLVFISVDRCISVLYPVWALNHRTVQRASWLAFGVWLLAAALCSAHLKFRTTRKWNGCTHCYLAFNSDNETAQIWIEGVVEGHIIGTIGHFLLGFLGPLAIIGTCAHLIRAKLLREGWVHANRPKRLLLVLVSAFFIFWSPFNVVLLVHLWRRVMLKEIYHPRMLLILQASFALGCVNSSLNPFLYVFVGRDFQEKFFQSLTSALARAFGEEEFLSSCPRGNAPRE
# Experiment: qHTS for Agonists of Human Resolvin D1 Receptor DRV1; also: 0% is about no effect
# Settings: CHO-K1 GPR32 beta-arrestin PathHunter luminescence, 90 min; at 76.9 µM; stronger effect = higher value; zero percent set by DMSO-only wells
# In short: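 Using DMSO wells as EC0, agonist-induced signal was taken as chemiluminescence from beta-Gal reconstituted upon beta-arrestin recruitment to GPR32 in CHO-K1 cells after 90 min compound treatment.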
row,SMILES,activation
1,CCc1ccc(S(=O)(=O)c2nnn3c2nc(NCc2ccccc2)c2cc(Cl)ccc23)cc1,inactive: -12.8%
2,CCN1C(=O)C(Cc2nc3ccccc3c(=O)n2C)c2cc(C)ccc21 (stereo not given),inactive: -13.5%
3,CCOc1ccc(C(=O)Nc2ccc3c(c2)OCCO3)cc1Br,inactive: 16.1%
4,CCCNC(=O)C(Cc1ccccc1)NS(=O)(=O)c1ccc2c(c1)c(=O)n(C)c(=O)n2C (stereo not given),inactive: -8.14%
5,COc1ccccc1-c1nc2cc(NC(=O)c3ccccc3Cl)ccc2o1,inactive: 1%
6,Cc1ccc(-c2csc3ncnc(Nc4ccc(C(=O)O)cc4)c23)cc1,inactive: 3.88%
7,COc1ccc2c(c1)CCc1c(C(=O)Nc3ccc(OC)cc3OC)noc1-2,inactive: 1.58%
8,COc1ccccc1NC(=O)c1sc2nc3n(c(=O)c2c1C)N=C(c1cccc(Br)c1)CS3,inactive: -12.4%
9,Cc1nc(S(=O)(=O)N2CCN(c3ccccc3F)CC2)cn1C,inactive: 5.39%
10,COc1ccc(Cl)cc1NC(=O)CN1Cc2ccccc2C1=O,inactive: -19.4%
11,COc1ccc(Cn2c(C(=O)O)c(CNC3CCCCC3)c3ccc(C)cc32)cc1,inactive: 13.2%
12,COC(=O)c1ccc2c(c1)N(Cc1ccccc1)C(=O)c1ccccc1S2(=O)=O,inactive: 7.74%
13,COc1ccc(OC)c(/C=C(\C#N)c2nc(-c3ccc(F)cc3)cs2)c1,inactive: -14.7%
14,O=C(O)c1ccc(NC(=O)c2ccc(Br)c(S(=O)(=O)N3CCCC3)c2)cc1,inactive: -12.8%
15,CCOc1ccc(NC(=O)Cc2c[nH]c3ccccc23)cc1,inactive: -0.226%
16,Nc1c(-c2nc(-c3ccc4c(c3)OCO4)cs2)c2ccccn2c1C(=O)c1ccc(Cl)cc1,inactive: -6.79%
17,CCCC12CN3CC(C)(CN(C1)C3c1ccc(OCc3ccccc3)cc1)C2=O (stereo not given),inactive: 4.82%
18,Cc1cccc(CNC(=O)CN2C(=O)CCn3nc(-c4cn(C)c5ccccc45)cc32)c1,active: 107%
19,Cc1ccc(SCc2nc(-c3ccc(C(=O)NCC(C)c4ccccc4)cc3)oc2C)cc1 (stereo not given),inactive: -6.33%
20,Cc1ccc2oc(=O)c3cc(C(=O)NCCc4ccc(Cl)cc4)sc3c2c1,inactive: 3.47%
21,Cc1ccc(NC(=O)CCN2C(=O)c3ccccc3Sc3ncccc32)c(Cl)c1,inactive: 2.45%
22,COc1ccccc1NC(=O)c1sc2nc(C)c(C(=O)Nc3ccc(C)cc3C)c(-c3ccccc3Cl)c2c1N,inactive: -20.2%
23,COc1cc(OC)cc(C(=O)NCCc2csc(-c3ccc(C(F)(F)F)cc3)n2)c1,inactive: -13.8%
24,CCS(=O)(=O)N1CCc2cc(C(=O)NCc3ccccc3Cl)ccc21,inactive: 28.7%
25,COc1ccc(NC(=O)C(C(C)C)N2Cc3ccccc3C2=O)cc1 (stereo not given),inactive: -8.82%
26,CCCCc1nn2c(=O)cc(COC(=O)c3ccccc3C)nc2s1,inactive: 8.48%
27,O=C(c1cc2ccc3cccnc3c2[nH]1)N1CCN(c2cccc(Cl)c2)CC1,inactive: -10.3%
28,CCOc1ccccc1NS(=O)(=O)c1cc(-c2cnc(C3CC3)o2)ccc1C,inactive: -4.66%

row,SMILES,activation
1,Cc1ccc(-n2nc3c(=O)n(C(C)C(=O)NCc4ccccc4C)nc(C)c3c2C)cc1 (stereo not given),inactive: 3.73%
2,CCc1ccccc1NC(=O)NC(CC)Cn1nnc2ccccc2c1=O (stereo not given),inactive: -21.5%
3,Cc1ccc(C)c(NC(=O)CSc2nc(=O)n(Cc3ccncc3)c3c2CCC3)c1,inactive: -10.1%
4,COC(=O)c1cc2sc(C)cc2n1Cc1nc(-c2ccc(C)cc2)oc1C,inactive: -3.3%
5,CC(=O)N1c2ccc(S(=O)(=O)NCCC(=O)N(C)Cc3ccccc3)cc2CC1C (stereo not given),inactive: 26.4%
6,Cc1cc2n(n1)CCC(=O)N2Cc1ccc(C(=O)Nc2cccc(C(F)(F)F)c2)cc1,inactive: 27.8%
7,O=C(NCCc1ccc(Cl)cc1)C(=O)NCC(c1cccs1)S(=O)(=O)c1ccccc1 (stereo not given),inactive: -3.72%
8,COc1ccc(-c2noc(CSc3nc4ccccc4[nH]3)n2)cc1,active: 96.1%
9,CC(C)c1ccc(Nc2c(-c3ccc(N(C)C)cc3)nc3cnccn23)cc1,inactive: 1.48%
10,Cc1ccc(Nc2c(-c3ccc(C)cc3)nc3c(C)cccn23)cc1,inactive: -20.9%
11,CCc1cccc(C)c1NC(=O)CCS(=O)(=O)c1ccc2c(c1)oc(=O)n2C,inactive: 2.98%
12,COc1cccc(CN(C(=O)c2oc3ccccc3c2C)C2CCS(=O)(=O)C2)c1 (stereo not given),inactive: -23.2%
13,CN(C)CCC(c1ccccc1)c1ccccn1 (stereo not given),inactive: -8.3% and inactive: -1.02%
14,CNC(=O)c1c(NC(=O)Cc2coc3ccc(OC)cc23)sc2c1CCCC2,inactive: -13.4%
15,Cc1cc(C)c(NC(=O)CSc2nc3c([nH]c4ccccc43)c(=O)n2C)c(C)c1,inactive: -6.37%
16,COc1ccc(CCNC(=O)c2ccc(Cn3c(=O)[nH]c4cc(OC)c(OC)cc4c3=O)cc2)cc1OC,inactive: -8.15%
17,O=C(/C=C/c1ccccc1)OCc1ccccc1,inactive: 16.6%
18,O=C(CN1CCN(Cc2ccc3c(c2)OCO3)CC1)N1c2ccccc2Sc2ccccc21,inactive: -3.19%
19,CCc1ccccc1N(CC)C(=O)C1CCN(c2ncnc3c2nc2n3CCCCC2)CC1,inactive: -14.3%
20,CCOC(=O)C(=O)c1csc(NC=O)n1,inactive: 7.87%
21,CCCCNC(=O)CN1CCN(c2ncc(NC(=O)c3ccc(Cl)cc3)cc2C(=O)O)CC1,inactive: 11.1%
22,COc1cc(NC(=O)C2CCN(c3nc4ccccc4nc3C(F)(F)F)CC2)cc(OC)c1,inactive: -2.24%
23,CCCOc1cccc(C2c3c(oc4ccc(F)cc4c3=O)C(=O)N2c2nc(C)c(C(C)=O)s2)c1 (stereo not given),inactive: -4.42%
24,CCC(C)NC(=O)c1sc2nc3n(c(=O)c2c1C)CCC3 (stereo not given),inactive: 4.6%
25,COCCc1nn2c(=O)cc(COC(=O)c3ccc(Br)cc3)nc2s1,inactive: -8.55%
26,O=c1c2ccccc2n(Cc2cccc(Cl)c2)c(=O)n1Cc1ccccc1,inactive: -10.4%
27,CCN(C(=O)Cn1ncc2c(=O)oc3ccccc3c21)c1ccccc1F,inactive: 1.06%

# Source: PubChem BioAssay AID1346428 (National Center for Advancing Translational Sciences (NCATS), 2018)
